{
  "source": "PubChem BioAssay AID1345082",
  "about": "(National Center for Advancing Translational Sciences (NCATS), 2018)",
  "note": "Hit rate of the full screen: of about 94,000 compounds, about 4,000 (4.3%) were called active. Inconclusive results, whose numbers are uncertain, are shown with a selection of clear calls. Calls come from the whole dose curve; as a rule, active = well fitted inhibition curve with a large enough effect; inconclusive = small, poorly fitted or top-dose-only effect; inactive = no such curve, though single readings can be large or run the other way. Potencies of inconclusive entries are doubtful fits and often do not repeat. Potency is the fitted concentration of half-maximal effect; tags give direction and shape of the fitted curve.",
  "data": [
    {"assay": "Cytotoxic Profiling in NIH 3T3 Cell Line of Diverse Libraries Using Quantitative High-Throughput Screening; note: nearly all actives have a fitted effect of over 55% in size", "conditions": "NIH 3T3 viability, CellTiter-Glo ATP luminescence, 48-72 h; series mostly up to 96.7 µM", "summary_of_the_method": "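Cells were seeded at 400 per well, treated with pin-transferred compound, and kept 48 or 72 hr at 37 °C before CellTiter-Glo addition and luminescence imaging of cellular ATP.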", "values": [
      {"smiles": "Cc1ccc(-n2nc(C)c([C@H]3C=C[C@@H](O)C3)c2C)cc1Cl", "Potency": "inconclusive: 89.1 µM [inhibitor, partial curve, poor fit]"},
      {"smiles": "Cc1cc(C(=O)N2CCC(c3nc(C4CCOCC4)no3)CC2)nn1C", "Potency": "inactive"},
      {"smiles": "CN(C)c1cccc(-c2ncc3c(n2)OCCN(c2ccccc2)C3=O)c1", "Potency": "inconclusive: 35.5 µM [inhibitor, partial curve, poor fit]"},
      {"smiles": "CCCNc1cc(N2CCC(CCC(=O)Nc3cc(C)ccc3OC)CC2)ncn1", "Potency": "inconclusive: 44.7 µM [inhibitor, partial curve, poor fit]"},
      {"smiles": "Cc1oc2ccn(Cc3ccc(F)cc3)c(=O)c2c1C(=O)NC1CCCCCC1", "Potency": "inconclusive: 44.7 µM [inhibitor, partial curve, poor fit]"},
      {"smiles": "CCCn1ccc2oc(C)c(C(=O)NCc3ccc(CC)cc3)c2c1=O", "Potency": "inconclusive: 50.1 µM [inhibitor, partial curve, poor fit]"},
      {"smiles": "CC(C)c1ccc(CC(=O)N2CCCc3ncc(C(=O)NCCc4cnc[nH]4)cc32)cc1", "Potency": "inconclusive: 56.2 µM [inhibitor, partial curve, poor fit]"},
      {"smiles": "CC(C)CN1CCCC(COc2ccccc2C(=O)NC2CC2)C1", "note": "(configuration not stated)", "Potency": "inconclusive: 56.2 µM [inhibitor, partial curve, poor fit]"},
      {"smiles": "COc1ccccc1-c1ccc2ncc(Nc3ccc(C(N)=O)cc3)n2n1", "Potency": "inconclusive: 44.7 µM [inhibitor, partial curve]"},
      {"smiles": "Clc1ccc2oc([C@H]3CCN(Cc4cccs4)C3)nc2c1", "Potency": "inconclusive: 100 µM [inhibitor, partial curve, poor fit]"},
      {"smiles": "CC1=C[C@@H](CNC(=O)C2CCCCC2)[C@H](C(C)C)C[C@H]1Cc1nc2ccc(C)cc2[nH]1", "Potency": "inconclusive: 39.8 µM [inhibitor, full curve]"},
      {"smiles": "O[C@@H]1CN(Cc2cccn2-c2ccccn2)CC[C@H]1c1ccc2c(c1)OCO2", "Potency": "inconclusive: 44.7 µM [inhibitor, partial curve]"},
      {"smiles": "O=C(Nc1nccs1)c1ccc2c(c1)OCCN(c1cccc(OC(F)(F)F)c1)C2", "Potency": "inconclusive: 89.1 µM [inhibitor, single point]"},
      {"smiles": "CCCn1c(C)cnc1C1CCN(S(=O)(=O)c2ccc3c(c2)CCC3)C1", "note": "(configuration not stated)", "Potency": "inconclusive: 44.7 µM [inhibitor, partial curve, poor fit]"},
      {"smiles": "CN(C)CC(C)(C)NC(=O)c1csc2nc(-c3cccc(C(F)(F)F)c3)cn12", "Potency": "inconclusive: 50.1 µM [inhibitor, partial curve, poor fit]"},
      {"smiles": "C[S+](=O)([O-])c1ccc(-c2cc3c(ccn3Cc3ccncc3)c(N3CCOCC3)n2)cc1", "Potency": "active: 6.31 µM"},
      {"smiles": "Cc1ccc(C)c(C(=O)N2CCC(N3C(=O)CCC3C(=O)NCc3ccccc3)CC2)c1", "note": "(configuration not stated)", "Potency": "inactive"},
      {"smiles": "Cn1ncc2c(C(=O)NCc3ccc(C(F)(F)F)cc3)cc(-c3ccc(C(F)(F)F)cc3)nc21", "Potency": "inactive"},
      {"smiles": "COc1cccc([S+](=O)([O-])N2CCC3(CC2)C(=O)NN=C3c2ccncc2)c1", "Potency": "inactive"},
      {"smiles": "CC(C)c1nc2c(c(-c3ccc(Cl)cc3)n1)CCN(C(=O)c1ccc(C(F)(F)F)cc1)CC2", "Potency": "inconclusive: 39.8 µM [inhibitor, partial curve, poor fit]"},
      {"smiles": "O=C(Nc1ccccc1)N1CCC(c2nn(-c3ccccn3)c(=O)[nH]2)CC1", "Potency": "inactive"},
      {"smiles": "C1CNCC(c2nc(C3CCOCC3)no2)C1", "note": "(configuration not stated)", "Potency": "inactive"},
      {"smiles": "Nc1nc2c(s1)C(c1cccc(F)c1F)CC(=O)N2", "note": "(configuration not stated)", "Potency": "inactive"},
      {"smiles": "COc1ccc(CCc2nc3nccc(-c4ccc(OC)cc4)n3n2)cc1", "Potency": "inconclusive: 50.1 µM [inhibitor, partial curve, poor fit]"},
      {"smiles": "CNc1cc(C2CC(Nc3nc(N)nc(C)c3Cl)C2)nc(COC)n1", "note": "(configuration not stated)", "Potency": "inactive"},
      {"smiles": "O=C(CC1CCCC1)N1CCC(N2C(=O)[C@H]3CN(Cc4ccccc4)C[C@H]3C2=O)CC1", "Potency": "inactive"},
      {"smiles": "COc1ccc(-c2cc(N3CCCC(NC(=O)Cc4cccc(F)c4)C3)n[nH]2)cc1", "note": "(configuration not stated)", "Potency": "inconclusive: 50.1 µM [inhibitor, partial curve, poor fit]"},
      {"smiles": "O=C(NCc1ccc(C(F)(F)F)cc1)c1nc2cccnc2n(CCc2ccccc2)c1=O", "Potency": "inconclusive: 63.1 µM [inhibitor, partial curve, poor fit]"},
      {"smiles": "CCN1c2cc(C(=O)Nc3cc(OC)cc(OC)c3)ccc2C(=O)N2CCCCCC21", "note": "(configuration not stated)", "Potency": "inconclusive: 39.8 µM [inhibitor, partial curve, poor fit]"},
      {"smiles": "O=C(c1cccc(Cl)c1)N1CCC(N2CCCNC2=O)CC1", "Potency": "inactive"},
      {"smiles": "COc1ccc(C2Cn3cnc(-c4nc(-c5ccc(OC(C)C)cc5)no4)c3CO2)cc1", "note": "(configuration not stated)", "Potency": "inactive"},
      {"smiles": "O=C(Nc1ccc(Cl)cc1)N1CCN(c2nccc(Nc3ccccc3F)n2)CC1", "Potency": "inconclusive: 20 µM [inhibitor, full curve, poor fit]"},
      {"smiles": "O=C(c1ccc(C2CCCNC2)cc1)N1CCC(Oc2cccc(F)c2)CC1", "note": "(configuration not stated)", "Potency": "active: 39.8 µM"},
      {"smiles": "COCCN1Cc2ccc(Nc3cccnc3)nc2C(C)(C(=O)Nc2cccc(F)c2)C1", "note": "(configuration not stated)", "Potency": "inconclusive: 56.2 µM [inhibitor, partial curve, poor fit]"},
      {"smiles": "CSc1ccc(CNC(=O)c2cc3c(N4CCCC4)nc(C)cn3n2)cc1", "Potency": "inconclusive: 50.1 µM [inhibitor, single point]"},
      {"smiles": "O=C1CC2(CCN(Cc3ccccc3)CC2)Oc2ccccc21", "Potency": "inconclusive: 50.1 µM [inhibitor, partial curve, poor fit]"},
      {"smiles": "CCOC(=O)C1c2c(OC)ccc3c2C(=CC(C)(C)CO3)CN1C(=O)C1CC1", "note": "(configuration not stated)", "Potency": "inconclusive: 39.8 µM [inhibitor, partial curve, poor fit]"},
      {"smiles": "O=C(CCc1ccccc1)NCCn1cccc1-c1nc(-c2ccc3c(c2)OCO3)no1", "Potency": "inconclusive: 44.7 µM [inhibitor, partial curve, poor fit]"},
      {"smiles": "CC(=O)Nc1cccc(-c2cc(C(=O)NCc3c(C)cc(C)[nH]c3=O)c3c(c2)N(C(C)C)CCO3)c1", "Potency": "active: 44.7 µM"},
      {"smiles": "CCN1c2cc(C(=O)Nc3cccc(SC)c3)ccc2C(=O)N2CCCCC21", "note": "(configuration not stated)", "Potency": "inconclusive: 12.6 µM [inhibitor, full curve, poor fit]"},
      {"smiles": "Cc1ccccc1C(=O)N1CCn2c(nn(-c3ccc([N+](=O)[O-])cc3)c2=O)C1", "Potency": "inconclusive: 28.2 µM [inhibitor, partial curve]"},
      {"smiles": "COCC(=O)NC[C@H]1CCN(Cc2scnc2C)C[C@H]1N(C)C", "Potency": "inactive"},
      {"smiles": "COc1ccccc1-c1cn2c(n1)CO[C@@H](CNC(=O)c1ccc(F)cc1)C2", "Potency": "inconclusive: 89.1 µM [inhibitor, partial curve, poor fit]"},
      {"smiles": "O=C(C1CCCC1)N1CCC2(CC1)CC(N(Cc1ccc(F)cc1)C1CC1)CCO2", "note": "(configuration not stated)", "Potency": "inconclusive: 50.1 µM [inhibitor, partial curve, poor fit]"},
      {"smiles": "N[C@H]1CO[C@H]2[C@@H]1OC[C@@H]2n1cc(-c2ccccn2)nn1", "Potency": "inconclusive: 20 µM [inhibitor, full curve, poor fit]"},
      {"smiles": "COc1ccc(-c2nc(C(C)C)nc3c2CCN(C(=O)NC2CCCC2)CC3)cc1", "Potency": "inconclusive: 70.8 µM [inhibitor, partial curve, poor fit]"},
      {"smiles": "O=C(Nc1ccc2c(N3CCOCC3)ncnc2c1)c1ccc(F)c(Cl)c1", "Potency": "active: 35.5 µM"},
      {"smiles": "O=C1NCCCCCCN(C(=O)c2ccoc2)[C@H]2C[C@H](C(=O)N3CCN(c4ccccn4)CC3)C[C@@H]12", "Potency": "inconclusive: 50.1 µM [inhibitor, partial curve, poor fit]"},
      {"smiles": "CCOC(=O)C1(Cc2ccc(Cl)cc2)CCN(C(=O)c2ccc(C)s2)CC1", "Potency": "inconclusive: 50.1 µM [inhibitor, partial curve, poor fit]"},
      {"smiles": "NC(=O)c1cccc2[nH]c([C@H]3CCN(Cc4ccccn4)C3)nc12", "Potency": "inconclusive: 50.1 µM [inhibitor, full curve, poor fit]"},
      {"smiles": "O=C(c1ccccc1Cl)N1CCN(CCCn2nc3n(c2=O)CCCC3)CC1", "Potency": "inactive"},
      {"smiles": "COCCN1Cc2nc(-c3cc(F)cc(F)c3)ccc2OCC1=O", "Potency": "inconclusive: 89.1 µM [inhibitor, partial curve]"},
      {"smiles": "Cn1ccc(C(=O)N2CC(CNC(=O)Nc3ccccc3)C3(C2)CN(c2ccccc2)C3)n1", "note": "(configuration not stated)", "Potency": "inconclusive: 70.8 µM [inhibitor, single point]"},
      {"smiles": "CC(C)c1ccc(-n2cc(CN3CCCC4(C3)CN(C)C(=O)O4)cn2)cc1", "note": "(configuration not stated)", "Potency": "inconclusive: 56.2 µM [inhibitor, partial curve, poor fit]"},
      {"smiles": "Cn1ncc2c(C(=O)N3CCC(C#N)CC3)cc(-c3ccccc3C(F)(F)F)nc21", "Potency": "inconclusive: 63.1 µM [inhibitor, partial curve, poor fit]"},
      {"smiles": "C=CCNC(=O)N1CC[C@@H](CC(=O)O)[C@@H](CC2=NCCc3cc(OC)ccc32)C1", "Potency": "inactive"},
      {"smiles": "O=C(Cc1cccc(Cl)c1)N1CCC(n2cnnc2C2CC2)CC1", "Potency": "inactive"},
      {"smiles": "O=C(COc1ccc(F)cc1)N1CCCC(Cc2noc(-c3ccccc3)n2)C1", "note": "(configuration not stated)", "Potency": "inconclusive: 44.7 µM [inhibitor, partial curve, poor fit]"},
      {"smiles": "COc1ccccc1-c1cccc(CN2CCC(NC(=O)c3cccnc3)CC2)c1", "Potency": "inconclusive: 50.1 µM [inhibitor, single point]"},
      {"smiles": "CC(NC(=O)CCc1conc1-c1ccccc1)c1ccc(F)cc1", "note": "(configuration not stated)", "Potency": "inactive"},
      {"smiles": "CC(=O)N1CCNc2cc(NCc3ccc(F)cc3)ncc2C1", "Potency": "inactive"},
      {"smiles": "CC(C)C(=O)N1CCc2c(n(Cc3cccnc3)n(CCc3ccccc3)c2=O)C1", "Potency": "inconclusive: 56.2 µM [inhibitor, partial curve, poor fit]"}
    ]}
  ]
}
